From PubChem BioAssay AID624296 (National Center for Advancing Translational Sciences (NCATS), 2012)
The campaign covered roughly 350,000 compounds. About 9,900 (2.8%) were called active. The shares of active, inactive and inconclusive entries below differ from those in the screen. The call rests on the fitted dose curve; in most records, active means well fitted activation curve with a large enough effect; inconclusive means small, poorly fitted or top-dose-only effect; inactive means no such curve, though single readings can be large or run the other way. Potencies of inconclusive entries are left out as doubtful fits.

Experiment: A quantitative high throughput screen for small molecules that induce DNA re-replication in MCF 10a normal breast cells. Further: nearly all actives have a fitted effect of over 50% in size. On activity, positive = re-replication: % of control where 0% means no effect.
Conditions: MCF 10A DNA re-replication, Hoechst nuclear intensity, 48 h; activity, positive = re-replication: at 46.1 µM (top of the series)
Potency means the concentration at half of the fitted maximal effect; tags describe the fitted curve by direction and shape.

Row | SMILES | Potency | activity, positive = re-replication
1 | NC(=O)c1ccsc1NC(=O)COC(=O)C1CC2CCCC(C1)C2=O (stereo unspecified) | inactive | –
2 | COc1ccc(-n2ncc3c(=O)n(CC(=O)Nc4ccc5c(c4)OCCO5)cnc32)cc1 | inconclusive [activator, partial curve, poor fit] | –
3 | CC(=O)Nc1ccc(Nc2cc(C)nc3c(-c4ccc(Cl)cc4)cnn23)cc1 | inconclusive [activator, partial curve, poor fit] | –
4 | CCCCC(=O)N(CCOC)c1nnc(-c2ccccc2C)s1 | inconclusive [activator, full curve, poor fit] | –
5 | Cc1cc2oc(C(=O)NCc3ccc4c(c3)OCO4)c(C)c2cc1C | inconclusive [activator, full curve, poor fit] | –
6 | CC(C)n1c(CN(C)c2ccccc2)nc2ccccc21 | inconclusive [activator, partial curve, poor fit] | –
7 | O=C(/C=C/c1cccnc1)c1ccc([N+](=O)[O-])cc1 | inconclusive [activator, full curve, poor fit] | –
8 | CC(C)n1c(=N)c(C(=O)NCCc2ccccc2)cc2c(=O)n3ccccc3nc21 | active: 13 µM | –
9 | Cc1cc(C)cc(N(CC(=O)N/N=C/c2ccncc2)S(=O)(=O)c2ccccc2)c1 | inactive | –
10 | Cc1nn(-c2ccccn2)c2c1C(=O)C(Br)CC2 (stereo unspecified) | inconclusive [activator, single point] | –
11 | O=C1OCCN1C(=O)[C@H]1[C@H](c2ccccc2)C(c2cccc(Cl)c2)=NN1c1ccccc1 | inconclusive [activator, partial curve, poor fit] | –
12 | N#CCCN(C(=O)COC(=O)C1CCN(S(=O)(=O)c2ccc3c(c2)OCCO3)CC1)c1ccccc1 | inactive | –
13 | COC1=CC(=O)C(OC)=C(OC)C1=O | inconclusive [activator, single point] | –
14 | CCOC(=O)Nc1ccc2c(c1)N(C(=O)CCN(C)C)c1ccccc1CC2 | inconclusive [activator, single point] | –
15 | Cc1cc(C)c(-c2cc(NC(=O)COC(=O)c3ccc(NC(=O)CC#N)cc3)n(-c3ccccc3)n2)cc1C | inactive | –
16 | Cc1sc2nc(C(C)C)oc(=O)c2c1C | inconclusive [activator, partial curve] | –
17 | COCCCn1c(=O)/c(=C\c2ccc(OC(F)F)c(OC)c2)s/c1=C(/C#N)C(N)=O | inconclusive [activator, partial curve] | –
18 | CC(C)(C)c1cc(NC(=O)Nc2ccc(Cl)cc2Cl)no1 | active: 18.4 µM | –
19 | CCC1(C)OC(=O)NN(c2ccc(C)cc2)C1(C)O (stereo unspecified) | inactive | –
20 | CCOc1cccc(CNc2ccc(O)cc2)c1OCc1ccc(Cl)cc1Cl | inconclusive [activator, single point] | –
21 | Cc1nc2sc3c(NCc4ccco4)ncnc3c2c2c1COC(C)(C)C2 | inconclusive [activator, single point] | –
22 | Cc1ccc(Oc2ccc(NC(=O)CSc3n[nH]c(N)n3)cc2)cc1 | inconclusive [activator, single point] | –

Row | SMILES | Potency | activity, positive = re-replication
23 | COC(=O)Cc1[nH]n(-c2nc3ccccc3s2)c(=O)c1C(C)=Nc1ccc(OC)cc1 | inconclusive [activator, partial curve, poor fit] | –
24 | Cc1cccc2sc(NC(=O)CN(C)S(=O)(=O)c3ccc(Br)s3)nc12 | inconclusive [activator, single point] | –
25 | COc1cc(SC)ccc1C(=O)Nc1ccc(S(=O)(=O)N2CCCC2)cc1 | inactive | –
26 | CCOC(=O)c1ccc(/[N+]([O-])=C/c2ccccc2)cc1 | inactive | –
27 | CCCCCCNC(=O)CCCCCNS(=O)(=O)c1ccc(Br)cc1 | inactive | –
28 | COc1ccc(-c2nc(-c3ccccc3)c(-c3cc([N+](=O)[O-])ccc3C)[nH]2)cc1O | inconclusive [activator, partial curve, poor fit] | –
29 | CC1CCN(S(=O)(=O)c2nnc(NC(=O)c3cccc([N+](=O)[O-])c3)s2)CC1 | inconclusive [activator, single point] | –
30 | CCn1cc(C(=O)N2CCN(Cc3ccc4c(c3)OCO4)CC2)c(=O)c2ccc(C)nc21 | inconclusive [activator, partial curve, poor fit] | –
31 | O=C(Nc1ccc(C(=O)N2CCCc3ccccc32)cc1)c1cccs1 | inactive | –
32 | CCCCc1ccc(Nc2ncnc3nc[nH]c23)cc1 | inactive | –
33 | CC(C)(C)c1ccc(C(=O)Nn2c(CCC(=O)O)ccc2-c2cccs2)cc1 | inconclusive [activator, partial curve, poor fit] | –
34 | CCN1CCN(c2ccc(NC(=O)c3ccc([N+](=O)[O-])o3)cc2Cl)CC1 | active: 1.3 µM | –
35 | Cc1oc(-c2cc(Cl)cc(Cl)c2)cc1C(=O)NCCc1ccccc1 | active: 14.6 µM | –
36 | CCN(CC)CCCNC(=O)C1CCN(c2ncnc3c2sc2cccc(F)c23)CC1 | inconclusive [activator, partial curve, poor fit] | –
37 | CC(C)OC(=O)c1nnn(-c2nonc2N)c1CN1CCc2ccccc2C1 | inactive | –
38 | O=C(O)c1ccc(NNC(=S)Nc2cc(C(F)(F)F)ccc2Cl)cc1 | inactive | –
39 | c1ccc(-c2csc3ncnc(NCC4COc5ccccc5O4)c23)cc1 (stereo unspecified) | active: 25.9 µM | –
40 | COc1cc2ncc(C(=O)c3ccccc3)c(N3CCN(Cc4ccccc4)CC3)c2cc1OC | inconclusive [activator, single point] | –
41 | CC(C)Nc1oc(-c2cccc3ccccc23)nc1C#N | inconclusive [activator, single point] | –
42 | Cc1c(C#N)c(NC(=O)CCl)n(Cc2ccccc2)c1C | inconclusive [activator, single point] | –
43 | O=C(CN(Cc1ccc(F)cc1)C(=O)Cn1nnc2ccccc21)NCC1CCCO1 (stereo unspecified) | inconclusive [activator, partial curve, poor fit] | –
44 | Cc1ccc(Sc2ccc(NC(=O)CCl)cc2)cc1C | inconclusive [activator, single point] | –

Row | SMILES | Potency | activity, positive = re-replication
45 | Cn1c(SCC(=O)Nc2cc(Cl)cc(Cl)c2)nnc1-c1ccc2nonc2c1 | active: 18.4 µM | –
46 | CC(=O)c1ccc(NC(=S)Nc2ccn(Cc3ccc(Br)cc3)n2)cc1 | inconclusive [activator, partial curve, poor fit] | –
47 | C/C(=N\NC(=O)c1nnn(-c2nonc2N)c1C(C)C)c1ccc2ccccc2c1 | inconclusive [activator, full curve, poor fit] | –
48 | COc1ccc(C(=O)NCC(=O)N/N=C/c2ccc([N+](=O)[O-])o2)cc1OC | inconclusive [activator, single point] | –
49 | O=C(Nc1cccc(Cl)c1Cl)c1ccccc1OCC(=O)N1CCOCC1 | inactive | –
50 | OC(CSc1ccccc1)CN1CCN(c2cccc(Cl)c2)CC1 (stereo unspecified) | inconclusive [activator, single point] | –
51 | CCOc1ccc(-n2c(SCC(=O)Nc3ccc(OC)cc3)nc3sc4c(c3c2=O)CCN(C)C4)cc1 | inconclusive [activator, partial curve, poor fit] | –
52 | Cc1cccc(C)c1OCC(O)Cn1nnc2ccccc21 (stereo unspecified) | inconclusive [activator, partial curve, poor fit] | –
53 | O=S(=O)(c1cccc(Cl)c1)N1CN(CC2CCCO2)c2nc3ccccc3nc21 (stereo unspecified) | inconclusive [activator, single point] | –
54 | COCCNC(=O)C1CCCN(S(=O)(=O)c2c(C)noc2/C=C/c2cccs2)C1 (stereo unspecified) | inactive | –
55 | COc1ccc2c(CC(=O)OCC(=O)N3CCc4ccccc43)coc2c1 | inconclusive [activator, single point] | –
56 | CCN(C(=O)Nc1cccc(Cl)c1)c1ccccc1 | inconclusive [activator, single point] | –
57 | COc1ccc(OC)c(/C=N\NC(=O)c2cc3c(ccc4ccccc43)o2)c1 | inconclusive [activator, single point] | –
58 | Oc1ccc(N=Cc2ccc(O)c(O)c2)cc1 | inconclusive [activator, single point] | –
59 | O=C(Cn1c(-c2ccccn2)nc2ccccc21)N/N=C/c1cccnc1 | inconclusive [activator, partial curve, poor fit] | –
60 | O=C(NC1CCN(Cc2ccccc2)CC1)c1cccc(S(=O)(=O)Nc2cc(C(F)(F)F)ccc2Cl)c1 | inconclusive [activator, single point] | –
61 | CN(C(=O)c1ccc(NC(=O)Cc2cccc(NC(=O)C3CCCN(C(=O)CCc4ccccc4)C3)c2)cc1)C1CCCC1 (stereo unspecified) | inconclusive [activator, partial curve, poor fit] | –
62 | Cc1ccc(CCc2nnc(SCC(=O)Nc3ccccc3Cl)n2-c2ccccc2)o1 | – | inconclusive: 75.3% [activator]
63 | O=C(Cc1ccccc1)NC1(O)C(=O)c2ccccc2C1=O | inconclusive [activator, single point] | –
64 | CC(SCc1ccccc1)C(=O)N/N=C/c1ccc(OCC(=O)NCc2ccco2)cc1 (stereo unspecified) | inconclusive [activator, single point] | –
65 | Cc1cc(=O)n(C)c(=O)n1CCCCOc1cccc([N+](=O)[O-])c1 | inactive | –
66 | Cc1ccc(-c2ccc(CCC(=O)O)n2-c2cccc(O)c2)cc1 | inconclusive [activator, partial curve, poor fit] | –
